{"sequences": {"note": "Protein sequences, listed by entry. Tags and fused reporters are not part of them. Lines headed by an entry give the natural chain unless they say otherwise; changes in a name come on top.", "UniProt Q9H4L4": "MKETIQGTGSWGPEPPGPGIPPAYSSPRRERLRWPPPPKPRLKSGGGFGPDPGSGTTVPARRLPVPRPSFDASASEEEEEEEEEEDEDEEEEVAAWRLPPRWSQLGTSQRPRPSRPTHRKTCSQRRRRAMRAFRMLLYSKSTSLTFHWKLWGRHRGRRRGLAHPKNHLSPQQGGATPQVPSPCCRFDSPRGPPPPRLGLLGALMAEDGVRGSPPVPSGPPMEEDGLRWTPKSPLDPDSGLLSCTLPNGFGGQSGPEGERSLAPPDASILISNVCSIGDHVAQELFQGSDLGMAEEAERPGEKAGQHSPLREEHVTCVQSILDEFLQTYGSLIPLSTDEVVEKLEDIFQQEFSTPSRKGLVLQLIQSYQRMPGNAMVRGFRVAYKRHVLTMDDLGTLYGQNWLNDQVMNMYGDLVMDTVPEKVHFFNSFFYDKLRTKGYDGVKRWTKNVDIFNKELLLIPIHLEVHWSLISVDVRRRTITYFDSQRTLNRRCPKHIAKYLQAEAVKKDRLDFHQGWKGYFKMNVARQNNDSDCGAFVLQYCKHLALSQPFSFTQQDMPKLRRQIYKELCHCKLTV", "UniProt P06748": "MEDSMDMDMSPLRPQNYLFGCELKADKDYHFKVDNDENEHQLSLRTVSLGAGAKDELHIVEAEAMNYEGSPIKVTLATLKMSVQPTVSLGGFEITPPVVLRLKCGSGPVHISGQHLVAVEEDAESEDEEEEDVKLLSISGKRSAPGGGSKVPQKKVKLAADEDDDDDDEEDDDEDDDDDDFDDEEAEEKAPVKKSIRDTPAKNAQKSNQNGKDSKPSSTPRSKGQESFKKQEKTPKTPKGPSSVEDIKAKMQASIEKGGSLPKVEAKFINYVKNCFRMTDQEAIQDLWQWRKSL", "UniProt Q06609": "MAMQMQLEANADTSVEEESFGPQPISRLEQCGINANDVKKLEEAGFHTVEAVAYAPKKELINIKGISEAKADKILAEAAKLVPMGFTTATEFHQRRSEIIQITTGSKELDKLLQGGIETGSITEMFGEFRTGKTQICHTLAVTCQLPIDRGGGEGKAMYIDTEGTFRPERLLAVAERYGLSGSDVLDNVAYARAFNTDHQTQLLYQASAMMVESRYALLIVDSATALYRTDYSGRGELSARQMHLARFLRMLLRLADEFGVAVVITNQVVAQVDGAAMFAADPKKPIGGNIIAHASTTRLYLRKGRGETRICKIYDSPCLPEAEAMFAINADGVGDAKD", "UniProt Q9Y3D8": "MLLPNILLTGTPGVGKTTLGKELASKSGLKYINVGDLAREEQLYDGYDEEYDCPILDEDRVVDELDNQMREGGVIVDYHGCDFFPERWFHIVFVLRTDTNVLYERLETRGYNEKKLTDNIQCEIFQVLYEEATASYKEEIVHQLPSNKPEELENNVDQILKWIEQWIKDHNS"}, "source": "paper PMC6707248", "key": {"[1]": {"target": "SENP3 in spleen sections of AML PDX mice (not stated (spleen of NOD/SCID mice carrying human AML cells)) (UniProt Q9H4L4)", "assay": "proximity ligation; PLA staining of spleen sections of AML PDX mice, control shRNA or hCINAP shRNA"}, "Flag-RAP80 ΔSIM": {"target": "T1, Flag-RAP80 ΔSIM (UniProt Q96RL1)", "T1 sequence": "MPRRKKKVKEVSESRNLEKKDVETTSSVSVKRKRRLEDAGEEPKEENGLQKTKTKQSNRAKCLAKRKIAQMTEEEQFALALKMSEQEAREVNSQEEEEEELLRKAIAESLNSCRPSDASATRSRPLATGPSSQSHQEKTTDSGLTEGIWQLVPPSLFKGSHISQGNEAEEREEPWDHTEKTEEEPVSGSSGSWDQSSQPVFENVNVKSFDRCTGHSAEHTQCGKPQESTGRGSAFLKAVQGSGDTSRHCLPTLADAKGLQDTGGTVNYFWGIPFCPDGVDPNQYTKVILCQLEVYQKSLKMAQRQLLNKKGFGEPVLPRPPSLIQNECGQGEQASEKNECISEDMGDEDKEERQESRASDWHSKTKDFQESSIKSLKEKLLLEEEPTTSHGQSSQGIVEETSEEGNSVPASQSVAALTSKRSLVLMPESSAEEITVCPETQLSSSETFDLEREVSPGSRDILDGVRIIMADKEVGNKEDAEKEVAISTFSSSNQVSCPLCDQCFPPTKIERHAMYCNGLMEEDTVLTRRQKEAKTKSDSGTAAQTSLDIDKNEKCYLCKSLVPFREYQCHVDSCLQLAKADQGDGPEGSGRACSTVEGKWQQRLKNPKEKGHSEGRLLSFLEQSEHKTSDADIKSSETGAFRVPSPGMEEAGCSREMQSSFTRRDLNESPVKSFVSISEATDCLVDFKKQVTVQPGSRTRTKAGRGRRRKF", "assay": "co-IP; HEK293T transfected with Flag-RAP80 FL or ΔSIM, with or without IR; anti-NPM1 and anti-Flag antibodies"}, "[2]": {"target": "SENP3 of the NPM1 co-IPs of Fig. 3i, j (human) (UniProt Q9H4L4)", "assay": "co-IP; HEK293T and hCINAP-/- HEK293T transfected with the indicated plasmids, with or without hCINAP"}, "Flag-NPM1 K263R": {"target": "Flag-NPM1 K263R (UniProt P06748)", "assay": "co-IP; HEK293T transfected with the indicated vectors, indicated antibodies (Fig. 5j)"}, "Flag-NPM1 WT": {"target": "Flag-NPM1 WT (UniProt P06748)", "assay": "co-IP; HEK293T transfected with the indicated vectors, indicated antibodies (Fig. 5j)"}, "HA-NPM1 WT": {"target": "HA-NPM1 WT (UniProt P06748)", "assay": "co-IP; HEK293T expressing Flag-hCINAP and HA-NPM1 WT or NPM1 truncated mutants"}, "Myc-SENP3 (human)": {"target": "Myc-SENP3 (human) (UniProt Q9H4L4)", "assay": "co-IP; HEK293T transfected with Myc-SENP3 and Flag-hCINAP for 48 h; immunoprecipitated with anti-Myc antibody"}, "[3]": {"target": "endogenous NPM1 (nucleophosmin) (human (endogenous in HEK293T, OCI-AML2)) (UniProt P06748)", "assay": "co-IP; endogenous proteins, NPM1 WT OCI-AML2 cell line (Supplementary Fig. 2a)"}, "[4]": {"target": "endogenous SENP3 (human (endogenous in OCI-AML2, OCI-AML3)) (UniProt Q9H4L4)", "assay": "co-IP; endogenous proteins, NPM1 WT OCI-AML2 cell line (Supplementary Fig. 2a)"}, "[5]": {"target": "endogenous SENP3 (human (endogenous in OCI-AML2, OCI-AML3)) (UniProt Q9H4L4)", "assay": "co-IP; endogenous proteins, NPM1 mutant OCI-AML3 cell line (Supplementary Fig. 2b)"}, "[6]": {"target": "endogenous NPM1 (nucleophosmin) (human (endogenous in HEK293T, OCI-AML2)) (UniProt P06748)", "assay": "co-IP; endogenous proteins, HEK293T whole-cell lysates, immunoprecipitated with an antibody against NPM1"}}, "note": "No constants are given. Whether binding was seen depends on the method and setting. In cells and extracts the contact can be indirect. Some binding calls cover weakened binding; strength is not graded here. For some assays here: Sequences can lack the tags named with a protein."}
{"substance": "NPM1 in spleen sections of AML PDX mice (from UniProt P06748 1-294)", "values": [{"measurement": "binding", "setting": "[1]", "result": "binds"}]}
{"substance": "endogenous NPM1 (nucleophosmin) (from UniProt P06748 1-294)", "values": [{"measurement": "binding", "setting": "Flag-RAP80 ΔSIM", "result": "no binding"}]}
{"substance": "NPM1 of the SENP3 co-IPs of Fig. 3i, j (from UniProt P06748 1-294)", "values": [{"measurement": "binding", "setting": "[2]", "result": "binds"}]}
{"substance": "RAD51 (from UniProt Q06609 1-339)", "values": [{"measurement": "binding", "setting": "Flag-NPM1 K263R", "result": "no binding"}, {"measurement": "binding", "setting": "Flag-NPM1 WT", "result": "binds"}]}
{"substance": "Flag-hCINAP (human coilin-interacting nuclear ATPase protein) (from UniProt Q9Y3D8 1-172)", "values": [{"measurement": "binding", "setting": "HA-NPM1 WT", "result": "binds"}, {"measurement": "binding", "setting": "Myc-SENP3 (human)", "result": "binds"}]}
{"substance": "endogenous hCINAP (from UniProt Q9Y3D8 1-172)", "values": [{"measurement": "binding", "setting": "[3]", "result": "binds"}, {"measurement": "binding", "setting": "[4]", "result": "binds"}, {"measurement": "binding", "setting": "[5]", "result": "binds"}, {"measurement": "binding", "setting": "[6]", "result": "binds"}]}
